# The whole screen tested about 420,000 compounds, of which about 64,000 (15%) were called active. The inconclusive results got no clear call from the source; some entries with a clear call stand among them for comparison. Calls come from the whole dose curve; as a rule, active = well fitted inhibition curve with a large enough effect; inconclusive = small, poorly fitted or top-dose-only effect; inactive = flat fitted curve, though single readings scatter. No potency is given beside an inconclusive call; the fits are too rough.
# Assay: qHTS for Inhibitors of human tyrosyl-DNA phosphodiesterase 1 (TDP1): qHTS in cells in absence of CPT; note: nearly all actives have a fitted effect of over 55% in size
# Settings: DT40 Tdp1-/- hTDP1 cells, no CPT, ATP luminescence, 48 h; activity change, negative = growth inhibition: at 46.2 µM (top of the series) unless noted
# Outline: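 DT40 Tdp1-/-;hTDP1 cells, no CPT (DMSO vehicle only), 400 cells/well; compounds pin-transferred; ≥48 hr, 37 °C; CellTiter-Glo 30 min RT dark, luminescence read.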
# % is set by controls: 0 for no effect and ±100 for the full control effect; potency is the fitted concentration of half-maximal effect; tags give direction and shape of the fitted curve.
Structure (SMILES),Potency,"activity change, negative = growth inhibition"
Cc1cc(C)c2c(=O)cc(C(=O)Nc3c(C)n(C)n(-c4ccccc4)c3=O)oc2c1,inactive,–
C/C(=N/NC(=O)c1ccc(C)s1)c1cccc(NC(=O)COc2ccc(Cl)cc2C)c1,"inconclusive [inhibitor, partial curve]",–
CCc1cc(OCCOCCN(C)C)ccc1Cl,"inconclusive [inhibitor, partial curve, poor fit]",–
Cc1cc2nc(/N=C(\N)NC(=O)C(C)C)nc(C)c2cc1C,"inconclusive [inhibitor, single point]",–
NC(=O)C1CCN(C(=O)CSc2ncccn2)CC1,inactive,–
CC(C(=O)Nc1ccc(F)cc1Cl)N1CCN(S(=O)(=O)c2cccs2)CC1 (stereo not given),"inconclusive [inhibitor, single point]",–
CC1=C(C(=O)N2CCCCCC2)CC(CC(=O)NCC2CCCCC2)C(=O)N1CCCN1CCCC1=O (stereo not given),inactive,–
CCOC(=O)C1C(=O)Oc2ccc3ccccc3c2C1C1CCOC1=O (stereo not given),active: 14.6 µM,–
O=C1OCC/C1=C1/NCCNC1=O,"inconclusive [inhibitor, full curve, poor fit]",–
CN1C(=S)SC(/[N+]([O-])=C/c2ccc(Cl)cc2)C1(C)C (stereo not given),inactive,–
COc1ccc(O)c(C=Nc2cc(NC(C)=O)c(Cl)cc2Cl)c1,inactive,–
Cc1ccc(CCNC(=O)C2CCN(S(=O)(=O)c3ccc4c(c3)NC(=O)CO4)CC2)cc1,–,inconclusive: -32.5% [inhibitor]
Cc1ccc(N2CC(NC(=O)C(=O)c3c[nH]c4ccccc34)CC2=O)cc1C (stereo not given),inactive,–
Cc1nn(C)c(C)c1S(=O)(=O)N1CCCC(C(=O)N2CCN(c3ccccc3)CC2)C1 (stereo not given),active: 23.1 µM,–
COCCn1c(=O)[nH]c(=O)c2c1nc(-c1cc(Br)c3c(c1)OCO3)n2Cc1ccccc1,inactive,–
O=C(NCc1ccncc1)Nc1cccc([N+](=O)[O-])c1,"inconclusive [inhibitor, single point]",–
CCOC(=O)c1c(NC(=O)c2c(C(=O)O)cccc2[N+](=O)[O-])sc2c1CCCC2,"inconclusive [inhibitor, single point]",–
CC(C)CC1Nc2ncnc(N3CCCCC3)c2N(Cc2ccccc2)C1=O (stereo not given),active: 18.4 µM,–
Cn1c(-c2cccs2)nc2ccccc21,"inconclusive [inhibitor, single point]",–
COc1ccc(C(=O)N2CCN(S(=O)(=O)c3ccc(C)cc3C)CC2)cc1OC,"inconclusive [inhibitor, single point]",–
CCCCCn1c(=O)[nH]c2c(c1=O)CCC2,inactive,–
COc1ccc(S(=O)(=O)NC2CC(=O)N(c3ccc(C)c(C)c3)C2)cc1 (stereo not given),active: 16.4 µM,–
COc1ccccc1N1CCN(C2CCCN(C(=O)CCN3CCCCO3)C2)CC1 (stereo not given),inactive,–

Structure (SMILES),Potency,"activity change, negative = growth inhibition"
O=C(Cn1c(=O)n(Cc2ccco2)c(=O)c2c3c(sc21)CCCC3)Nc1ccccc1,"inconclusive [inhibitor, single point]",–
COc1cc2[nH]c(=O)n(CCC(=O)N3CCN(c4ccc(Cl)cc4)CC3)c(=O)c2cc1OC,inactive,–
O=C(Cc1cccc2ccccc12)Nc1ccc(O)cc1C(=O)O,inactive,–
CC(C)[C@H]1COCCS(=O)(=O)N1Cc1cccc([N+](=O)[O-])c1,"inconclusive [inhibitor, single point]",–
O=C(CSC(=S)N1CCN(c2ccccc2)CC1)Nc1nc(-c2ccccc2)c(-c2ccccc2)o1,"inconclusive [inhibitor, partial curve]",–
Cc1cc(C)c(/C=C/c2onc(C)c2S(=O)(=O)N2CCC(C(=O)NCc3ccccc3Cl)CC2)c(C)c1,"inconclusive [inhibitor, partial curve]",–
COC(=O)[C@]12CCCCC=C1N(Cc1ccccc1)C(=O)[C@H](CC(=O)N1CCC(c3ccccc3)CC1)C2,"inconclusive [inhibitor, single point]",–
Fc1ccc(-c2nc3c(Cl)cc(C(F)(F)F)cn3c2Cc2cccc(F)c2)cc1,"inconclusive [inhibitor, full curve, poor fit]",–
COc1ccc(/C=N/N2CCOCC2)cc1Cn1nc(C)c([N+](=O)[O-])c1C,–,inconclusive: -33.3% [inhibitor]
CCN(C(=O)COc1ccc(C)nc1[N+](=O)[O-])C1CCS(=O)(=O)C1 (stereo not given),inactive,–
COc1ccc(C2CC(c3cccs3)=NN2C(=O)CSc2nnc(N)s2)cc1OC (stereo not given),"inconclusive [inhibitor, single point]",–
O=C(NC1CCSc2ccccc21)c1ccc(Cl)c(S(=O)(=O)N2CCOCC2)c1 (stereo not given),"inconclusive [inhibitor, single point]",–
CC(=O)Nc1ccccc1C(=O)C(=O)Nc1cccc(C(=O)NCC2CCCO2)c1 (stereo not given),inactive,–
CN(c1ccccc1)c1nc(N)c([N+](=O)[O-])c(N2CCCCCC2)n1,"inconclusive [inhibitor, single point]",–
COc1cccc(OC)c1C(=O)Nc1ccc(Cc2ccncc2)cc1,"inconclusive [inhibitor, single point]",–
CCOC(=O)CSC1=C(C#N)C(c2ccco2)C(C(=O)OCc2ccccc2)=C(C)N1 (stereo not given),"inconclusive [inhibitor, single point]",–
CCOC(=O)/C=C/C(=O)OCC(=O)N1CCN(C(=O)c2ccco2)CC1,active: 14.6 µM,–
CCOC(=O)c1cc2c(=O)c3cc(C)ccc3oc2nc1C,active: 14.6 µM,–
Cc1ccc(C)c(S(=O)(=O)NCc2nc(N3CCCC3)c3cc(Cl)ccc3n2)c1,"inconclusive [inhibitor, single point]",–
Cc1csc2nc(COc3ccc(NC(=O)COc4ccccc4)cc3)cc(=O)n12,inactive,–
CC(C)C[C@H]1CN(CCCC[C@H]2CNC(=O)C(=O)N2Cc2ccccc2)C(=O)C(=O)N1CCC1CCCCC1,"inconclusive [inhibitor, single point]",–
Cc1ccc(S(=O)(=O)NC(CC(=O)N2CCc3ccccc32)c2ccco2)cc1 (stereo not given),"inconclusive [inhibitor, partial curve]",–

# From PubChem BioAssay AID686978 (National Center for Advancing Translational Sciences (NCATS), 2013)
